About 120 (0.25%) of roughly 48,000 compounds were called active. About 4% were inconclusive and are not listed. Calls follow the shape of the dose curve; as a rule, active = well fitted activation curve with a large enough effect; inconclusive = small, poorly fitted or top-dose-only effect, or another doubt; inactive = no such curve, though single readings can be large or run the other way. Some of the results follow.
Test: Primary qHTS for Identification of Small Molecule Activators of Huntingtin-Antisense Promoter Activity; also: nearly all actives have a fitted effect of over 55% in size
Conditions: HEK293 HTT-AS promoter firefly luciferase reporter, 24 h; series mostly up to 57.5 µM; activity change, positive = activation: at the top concentration
Outline: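 HEK293 luciferase promoter-reporter cells (2,500/well) plated 24 h, then compounds added at up to 57.5 uM final for 24 h at 37 °C. Firefly luminescence by Dual-Glo, normalized to vehicle (0%) and zero RLU (-100%).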

Structure (SMILES)	activity change, positive = activation
COc1ccc(NC(=O)c2cn3c4c(ccc(Cl)c4c2=O)OC(C)C3)cc1OC (stereo not given)	inactive: -19.3%
CSc1ncc(C(=O)Nc2ccc(C(C)=O)cc2)c(-c2ccccc2)n1	inactive: 26.9%
CCOc1ccc2nc(NC(=O)c3cc(=O)c4cc(C)cc(C)c4o3)sc2c1	inactive: 19.4%
COc1ccc(N(Cc2cccs2)C(=O)COc2cc(C)c(Cl)c(C)c2)cc1	inactive: -34.1%
Cc1cccc(NC(=O)Cc2ccc(-n3c(C)nc4cccnc43)cc2)c1C	inactive: -27.7%
O=c1c2cnn(-c3ccc(F)cc3)c2ncn1Cc1ccc(F)cc1	inactive: -19.7%
COc1ccc(Cl)cc1NC(=O)Cn1cc2c(n1)CCC(C)C2 (stereo not given)	inactive: -13.1%
Cc1cc(-c2ccc(S(=O)(=O)Nc3ccc(Br)c(C)c3)s2)on1	inactive: -35.1%
CSc1nnc2[nH]c(=O)cc(C)n12	inactive: -0.949%
COc1ccc(CNC(=O)C2Cc3cc(S(=O)(=O)N4CCCCCC4)ccc3N2C(C)=O)cc1 (stereo not given)	inactive: -2.01%
CC(=O)c1ccc(N2CCN(C(=O)c3ccc(Cn4c(=O)[nH]c5ccccc5c4=O)cc3)CC2)cc1	inactive: -24%
CC(C)c1ccc(NC(=O)C2(C)Cc3ccccc3C(=O)O2)cc1 (stereo not given)	inactive: 26%
CN1c2cc(O)c(N=NC(N)=O)cc2CC1S(=O)(=O)O (stereo not given)	inactive: -15.9%
Cc1ccc2c(c1)-c1c(cnn1CC(=O)N1CCN(c3cc(Cl)ccc3C)CC1)CO2	inactive: -9.54%
CC(C)C(NS(=O)(=O)c1cccc2cccnc12)C(=O)Nc1ccc(OC(F)(F)F)cc1 (stereo not given)	inactive: -17.3%
O=C(c1ccccc1)c1ccc2nc(Nc3cc(Cl)ccc3O)c3nncn3c2c1	inactive: -19.1%
Cc1cc(C)c(NC(=O)CCC(=O)N2Cc3ccccc3Oc3ncccc32)c(C)c1	inactive: -19.5%
COC(=O)c1ccccc1NC(=O)Cn1c(=O)n(CCCC(=O)NCCc2ccc(OC)c(OC)c2)c(=O)c2ccccc21	inactive: -18.5%
Cc1ccc(C)c(NC(=O)NCc2ccc3c(c2)CCN3C(=O)c2ccccc2)c1	inactive: -27.1%
COc1ccc(Nc2cc(C)c3cc(NC(=O)c4cc(OC)cc(OC)c4)ccc3n2)cc1	inactive: -45.4%
CCCOc1ccc(C2c3c(oc4ccccc4c3=O)C(=O)N2c2nc(C)c(C(=O)OCC)s2)cc1 (stereo not given)	inactive: 5.77% [at 11.5 µM, percent change from vehicle, -100% = no light]
COc1ccc(S(=O)(=O)NCc2ccc(C(=O)NCc3ccccc3)cc2)cc1	inactive: -11.1%
CC(C)(N)c1ccc(-c2nc3ccccc3nc2-c2ccccc2)cc1	inactive: -17.9%
COc1cc2ncn(-c3cc(OCc4ccccc4C(F)(F)F)c(C(N)=O)s3)c2cc1OC	inactive: 22.9%

Structure (SMILES)	activity change, positive = activation
O=C(NCC(c1ccccc1)c1ccccc1)c1nn(-c2ccccc2Cl)nc1CO	inactive: -44.3%
CCOc1ccccc1NC(=O)c1sc(-n2nc(C)c(CCC(C)C)c2C)nc1C	inactive: -12.7%
Cc1ccc(Cl)cc1N1CCN(C(=O)c2ccc3c(c2)N(Cc2ccccc2F)C(=O)c2ccccc2S3(=O)=O)CC1	inactive: -12.7%
Cc1nc2c(C(=O)N(C)Cc3ccccc3)c[nH]n2c(=O)c1Cc1ccc(Cl)cc1	inactive: -44.5%
CCCCOc1ccc(S(=O)(=O)N2CCN(c3ccccc3OCC)CC2)cc1	inactive: -3.65%
COc1ccc(Cl)cc1NC(=O)CN(C)S(=O)(=O)c1ccc(Br)s1	inactive: -30%
CCC1CCCCN1CCCNC(=O)CN1C(=O)CSc2ccc(S(=O)(=O)N3CCC(C)CC3)cc21 (stereo not given)	inactive: -9.63%
Cc1cc(C)c2oc(-c3cccc(NC(=O)c4ccco4)c3)nc2c1	inactive: -9.62%
COCCCNC(=O)CCC(=O)N1Cc2ccccc2Oc2ncccc21	inactive: -3.76%
Cc1cc2c(c3oc(=O)c4ccccc4c13)CN(Cc1ccc(F)cc1)CO2	inactive: -16.9%
O=C(Nc1cccc(Cl)c1)Nc1ccccc1OCc1cc(=O)n2ccccc2n1	inactive: 8.72%
C#CCN[C@@H]1CCc2ccccc21	inactive
O=S(=O)(c1ccc2[nH]c3c(c2c1)CCCCC3)N1CCN(c2ccccc2)CC1	inactive: -29.9%
CCOc1ccc(NS(=O)(=O)c2ccc(N)cc2)nn1	inactive: -3.39%
Cc1ccc(N2CCN(C(=O)CCc3c(C)nc4c(c3C)c(=O)n(C)c(=O)n4C)CC2)c(C)c1	inactive: -19.6%
O=C(CCn1cnc2ccccc2c1=O)NCc1ccccc1	inactive: -9.32%
CC(=O)C1=C(c2ccc(Cl)c(Cl)c2)N(C(C)=O)n2c(C)nnc2S1	inactive: -20.8%
Cc1cccc(C)c1NC(=O)c1oc2c(c1C)-c1nn(Cc3ccccc3)cc1CC2	inactive: -50.3%
CCCSCCCNC(=O)CN1C(=O)COc2ccc(S(=O)(=O)N3CCC(C)CC3)cc21	inactive: -20.6%
CN1C(=O)Cc2cc(S(=O)(=O)CCC(=O)Nc3ccccc3)ccc21	inactive: -13.8%
CCN(CC)CCCNC(=O)Cn1nc(N2CCN(c3ccccc3OC)CC2)ccc1=O	inactive: -12.6%
COc1cc(OC)c(N(C)C(=O)c2nn(C)c3c2CSc2ccccc2-3)cc1Cl	inactive: 6.32%
CCOC(=O)c1c(C)[nH]c(C)c1S(=O)(=O)N1CCCC(C(=O)Nc2ccc(OC)c(Cl)c2)C1 (stereo not given)	inactive: -5.33%
COc1cc(OC2CCN(C)CC2)ccc1Nc1ncc2c(n1)n(C1CCCC1)c(=O)n2C	inactive: -24.6%

Structure (SMILES)	activity change, positive = activation
O=C(Cn1ncc2c3ccccc3n(Cc3ccccc3F)c2c1=O)NCCc1ccc(Cl)cc1	inactive: -2.89%
COc1cccc(CNC(=O)CSc2c3c(nc4ccc(Cl)cc24)CCCC3)c1OC	inactive: -31.1%
CC1=C(C(=O)Nc2ccc(C)cc2C)C(c2ccc(Cl)cc2)n2nc(C(=O)OC(C)C)nc2N1 (stereo not given)	inactive: -22.2%
O=C(Cn1cnc(S(=O)(=O)N2CCCC2)c1)Nc1ccc(OC(F)(F)F)cc1	inactive: -11%
Cc1ccccc1Nc1nnc(-c2ccc(C)c(S(=O)(=O)N3CCOCC3)c2)c2ccccc12	inactive: 3.05%
CN1CCN(c2ncc(-c3cc(Cl)cc(Cl)c3Cl)c(N)n2)CC1	inactive: -29.6%
COc1ccc(CN2COc3ccc4c(-c5ccccc5)cc(=O)oc4c3C2)cc1	inactive: -9.56%
Cc1cccc(N2CCN(C(=O)C3CCN(S(=O)(=O)c4cccs4)CC3)CC2)c1C	inactive: -18.7%
COc1ccc(OC)c(NC(=O)Cn2cnc3c(oc4ccccc43)c2=O)c1	inactive: 18.2%
C1COC(NC(C2CC2)C2CC2)=N1	inactive
CN(C)c1ccc(CNC(=O)CN(C)S(=O)(=O)c2ccc3c(c2)c(=O)n(C)c(=O)n3C)cc1	inactive: -11%
Cc1ccc(CNC(=O)Cn2ccn(-c3ccc(C)c(C)c3)c(=O)c2=O)cc1	inactive: 18.5%
Cc1ccc(CNC(=O)CN(c2ccc(Cl)cc2Cl)S(=O)(=O)c2ccccc2)cc1	inactive: -25.2%
COc1cccc(C(=O)Nc2c(C(=O)NC(C)(C)C)oc3ccccc23)c1	inactive: -3.15%
CCc1cccc2sc(N3CCN(C(=O)c4cc5ccccc5cc4OC)CC3)nc12	inactive: -29.2%
Cc1ccc(CCNC(=O)Cn2c(-c3cccs3)cc3cc(F)ccc32)cc1	inactive: -12.3%
CCc1cccc(NC(=O)Cn2c(=O)n(CCc3ccc(OC)c(OC)c3)c(=O)c3ccccc32)c1	inactive: -18.5%
COc1ccc(CC(=O)NCc2ccc3c(c2)CCN3C(=O)c2ccc(C)cc2)cc1OC	inactive: -33.2%
O=C(Cn1ncc2c(=O)oc3ccccc3c21)NCc1ccccc1Cl	inactive: -3.85%
Cc1ccc2oc(C(=O)N(Cc3cccc(F)c3)C3CCS(=O)(=O)C3)c(C)c2c1 (stereo not given)	inactive: -17.7%
COc1ccc(N2CCN(C(=O)c3cc(S(=O)(=O)N4CCCCCC4)cn3C)CC2)cc1	inactive: -11.3%
O=C(NCc1ccccc1Cl)C1CCC(CNS(=O)(=O)c2ccc(Cl)cc2)CC1 (stereo not given)	inactive: -5.5%
COc1ccc(-c2cc(=S)ss2)cc1	inactive: 29.5%
COc1cccc(NC(=O)N2CCC(n3c(C)nc4cccnc43)CC2)c1	inactive: -6.13%

Structure (SMILES)	activity change, positive = activation
COc1cccc(Cn2c(=O)n(-c3ccc(C)c(F)c3)c(=O)c3sc4ccccc4c32)c1	inactive: -10.9%
COc1ccc(CNC(=O)C2CCN(Cc3nc(-c4ccc(OC)c(OC)c4)oc3C)CC2)cc1	inactive: -5.23%
Cc1ccc(-c2cc(C(F)(F)F)n3nc(-c4ccc(Cl)cc4)cc3n2)cc1	inactive: -3.52% [at 11.5 µM, percent change from vehicle, -100% = no light]
COc1cccc(OC)c1C(=O)Nc1nnc(C)s1	inactive: 21%
O=C(COC(=O)C(Cc1c[nH]c2ccccc12)NC(=O)c1ccc(Br)cc1)c1ccc(Cl)cc1 (stereo not given)	inactive: -1.52%
Cc1ccc(N(CC(C)C)S(=O)(=O)c2nnc(NC(=O)c3ccco3)s2)cc1	inactive: -41.2%
Cc1cc(C(C)(C)C)c(O)c(C(C)(C)C)c1	inactive: -5.5%
CCOC(=O)c1cc(-c2ccccc2)n(CC(=O)Nc2ccc(OC)cc2OC)c1C	inactive: -14.7%
CCOc1ccc(NC(=O)C2CCN(S(=O)(=O)c3cc(-c4noc(C)n4)ccc3C)CC2)cc1	inactive: -12.7%
CSc1cccc(-c2nnc(NC(=O)c3ccc4c(c3)OCCO4)o2)c1	inactive: -2.97%
CC(C)CC(=O)NCc1nc2cccnc2n1Cc1ccccc1	inactive: -6.89%
CCOC(=O)c1nc(Nc2ccc(C(=O)OCC(C)C)cc2)c2ccccc2n1	inactive: -13.9%
O=C(CCc1cn(Cc2ccccc2F)c2ccccc12)NCc1ccc(Cl)cc1	inactive: -62.5%
COc1ccc(-c2ccc(NS(=O)(=O)c3cccc(Cl)c3)cc2)nn1	inactive: -23.5%
Cc1ccccc1CNC(=O)c1ccc(Cn2c(SCc3cccc(F)c3)nc3cccnc32)cc1	inactive: -25.2%
COc1ccc(Cn2ccc3nc(C)c(C(=O)N4CCN(c5ccccc5)CC4)cc3c2=O)cc1	inactive: -2.03%
O=C(c1cn(CCOc2ccccc2F)c2ccccc12)C1CCCCC1	inactive: -10.2%
COc1ccc(C(=O)c2oc3ccccc3c2NC(=O)c2ccc(F)cc2)cc1	inactive: 2.99%
CCOC(=O)c1ccc(NC(=O)c2cn(-c3ccccc3)nc2-c2ccc(Br)cc2)cc1	inactive: -8.33%
COc1ccc(NC(=O)CSc2oc(-c3cccs3)nc2S(=O)(=O)c2ccc(Br)cc2)c(OC)c1	inactive: 2.74%
CN/C(=C\[N+](=O)[O-])NCCSCc1ccc(CN(C)C)o1	inactive: -5.6%
Cc1cccc(Cn2cc(C(=O)c3ccccc3)c(=O)c3cc4c(cc32)OCO4)c1	inactive: -22.1%
Cc1ccc(Nc2sc(C(=O)c3ccccc3)c(N)c2C(=O)NC(C)C)cc1	inactive: 7.19%

Reference: PubChem BioAssay AID1508624 (National Center for Advancing Translational Sciences (NCATS), 2021)
